# Measurements from PubChem BioAssay AID686978 (National Center for Advancing Translational Sciences (NCATS), 2013).
# About 64,000 (15%) of roughly 420,000 compounds were called active. Inconclusive means that the source gave no clear call. Such entries were picked first, then a sample of the others. The call rests on the fitted dose curve; in most records, active means well fitted inhibition curve with a large enough effect; inconclusive means small, poorly fitted or top-dose-only effect; inactive means flat fitted curve, though single readings scatter. Potencies of inconclusive entries are left out as doubtful fits.
# Experiment: qHTS for Inhibitors of human tyrosyl-DNA phosphodiesterase 1 (TDP1): qHTS in cells in absence of CPT; further: nearly all actives have a fitted effect of over 55% in size
# Conditions: DT40 Tdp1-/- hTDP1 cells, no CPT, ATP luminescence, 48 h; activity change, negative = growth inhibition: at 46.2 µM (top of the series) unless noted
# How it was run: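 Camptothecin absent (DMSO only). Human TDP1-complemented DT40 knockout cells, 400 cells/well, 37 °C for minimum 48 hr; ATP measured via CellTiter-Glo, 30 min dark incubation, luminescence.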
# On the % scale 0 is the no-effect control and ±100 the full control effect; potency means the concentration at half of the fitted maximal effect; tags describe the fitted curve by direction and shape.
SMILES,Potency,"activity change, negative = growth inhibition"
OCCNC(=S)NC1CCCCC1,inactive,
O=C1C2CCCN2C(=S)N1c1ccc(Cl)cc1 (configuration not stated),,inconclusive: -32.1% [inhibitor]
O=C(C1=C[C@@H](c2coc3ccccc3c2=O)C[C@@H](OCCCCO)O1)N1CCN(Cc2ccccc2)CC1,"inconclusive [inhibitor, single point]",
CC(=O)c1ccc(C(=O)N2CCc3c(cnc(C)c3CNC(=O)c3ccc4c(c3)OCO4)C2)s1,inactive,
O=C(Nc1ccccc1Cl)c1cc(C2CCCN(C(=O)CCCc3ccccc3)C2)on1 (configuration not stated),"inconclusive [inhibitor, partial curve]",
O=c1[nH]c2ccccc2n2c(-c3ccncc3)nnc12,inactive,
CN(CC1COc2ccccc2O1)C(=S)NC1CCCCC1 (configuration not stated),"inconclusive [inhibitor, single point]",
CCN(C(=O)CN1C(=O)NC2(CCCc3ccccc32)C1=O)c1ccc(F)cc1 (configuration not stated),active: 16.4 µM,
COc1cccc(CNC(=O)c2cc(C3CC3)nc3c2cnn3C(C)C)c1,"inconclusive [inhibitor, single point]",
Cc1ccc(C)c(NC(=O)c2ccc(=O)n(Cc3ccc(F)cc3)c2)c1,"inconclusive [inhibitor, single point]",
CC(C)c1ccc(NC(=O)C2CCN(c3ncnc4c3nc3n4CCCCC3)CC2)cc1,"inconclusive [inhibitor, partial curve]",
COc1ccc(C(CC(=O)Nc2nccs2)C(C)C)cc1 (configuration not stated),"inconclusive [inhibitor, single point]",
COC(=O)c1cccc(NC(=O)Cc2nc(-c3ccccc3)sc2-c2ccc(C)cc2)c1,active: 18.4 µM,
CCCCN(CC)S(=O)(=O)c1ccc(C(=O)N=c2sc3cc(NC(C)=O)ccc3n2C)cc1,active: 16.4 µM,
Cc1ccc(C)c(CN2CCC(CNC(=O)Nc3ccc(C)c(F)c3)CC2)c1,"inconclusive [inhibitor, single point]",
O=C(N/N=C/c1cnc(N2CCCCC2)s1)c1ccc(C(F)(F)F)cc1,"inconclusive [inhibitor, partial curve]",
O=C(Cc1cccs1)Nc1nnc(SCc2cccc3ccccc23)s1,"inconclusive [inhibitor, partial curve]",
COc1ccc(C)cc1NC(=O)c1ccc2c(c1)N(Cc1cccc(Cl)c1)C(=O)c1ccccc1S2=O (configuration not stated),inactive,
Cc1ccc(S(=O)(=O)N2CCN(C(=O)N3CCCC3)CC2)cc1,inactive,
CCOc1ccc(NC(=O)c2ccccc2C(=O)c2ccccc2)cc1OCC,"inconclusive [inhibitor, single point]",
COc1ccc2[nH]cc(S(=O)(=O)c3ccc(C)cc3)c2c1,"inconclusive [inhibitor, single point]",
O=C(CCCc1ccccc1)NCCS(=O)(=O)N1CCN(c2ccc(F)cc2)CC1,"inconclusive [inhibitor, single point]",
CC(Sc1nnc(-c2ccccc2F)n1C1CC1)C(=O)NCc1ccco1 (configuration not stated),"inconclusive [inhibitor, single point]",
Clc1cccc(N2CCN(c3nc4ccccc4c4nc(-c5cccnc5)nn34)CC2)c1,"inconclusive [inhibitor, partial curve]",

SMILES,Potency,"activity change, negative = growth inhibition"
Fc1ccccc1CNC(=S)Nc1ccc(Cl)cc1,active: 20.6 µM,
Cc1ccc(S(=O)(=O)c2nc(-c3cccs3)oc2SC(C)c2ccccc2)cc1 (configuration not stated),"inconclusive [inhibitor, single point]",
O=C(CCc1ccncc1)NC1CCCc2c1cnn2-c1ccc(F)cc1F (configuration not stated),,inconclusive: -30.9% [inhibitor]
CC1CCN(C(=S)NC(=O)c2ccccc2)CC1,"inconclusive [inhibitor, single point]",
CN(C)C1CN(Cc2cn(Cc3cccc(C(F)(F)F)c3)nn2)S(=O)(=O)C1 (configuration not stated),inactive,
COCCNC(=O)C1CCC(CNS(=O)(=O)c2ccccc2)CC1 (configuration not stated),inactive,
CCOCCc1nnc(NC(=O)c2cccs2)s1,inactive,
CCOC(=O)c1sc(NC(=O)c2ccccc2)cc1C,"inconclusive [inhibitor, partial curve]",
Cc1ccc(OC/C(O)=C(\C#N)c2nc3ccccc3s2)cc1,"inconclusive [inhibitor, single point]",
COc1cc(/C=C2/C(=N)N3N=C(C)SC3=NC2=O)ccc1OS(=O)(=O)c1ccc(C)cc1,"inconclusive [inhibitor, partial curve]",
O=C(N/C(=C/c1ccc([N+](=O)[O-])cc1)C(=O)N1CCOCC1)c1ccco1,inactive,
COc1ccc(CN(C)CCn2cc(C(=O)N3CCSCC3)nn2)cc1C,inactive,
Cn1cncc1C#Cc1c(-c2ccsc2)sc2ccccc12,"inconclusive [inhibitor, single point]",
CCOc1ccc(CC(=O)NCCS(=O)(=O)N2CCN(c3ccccc3OC)CC2)cc1,active: 20.6 µM,
CCS(=O)(=O)N1CCc2cc(C(=O)N3CCN(c4ccccc4)CC3)ccc21,active: 14.6 µM,
CCCCC(=O)Nc1cc(-c2nc3ccccc3o2)ccc1OC,"inconclusive [inhibitor, single point]",
Nc1ncc(Br)cc1S(=O)(=O)NCCC(=O)NCCc1ccccc1,inactive,
CCOC(=O)N1CCC(N2C(=O)c3ccccc3C2Nc2cc(C)cc(C)c2)CC1 (configuration not stated),active: 14.6 µM,
CCOc1ccc(CCN2C(=O)C(=O)N([C@@H](Cc3ccccc3)CN3CCC[C@H]3CN3C(=O)C(=O)NC[C@@H]3Cc3ccccc3)C[C@@H]2Cc2ccc(O)cc2)cc1,"inconclusive [inhibitor, single point]",
CCOC(=O)Cc1nc(-c2ccccc2)n[nH]1,inactive,
Cc1c(NC(=O)c2cccc(S(=O)(=O)N(C)c3ccccc3)c2)c(=O)n(-c2ccccc2)n1C,inactive,
CN(Cc1ccccc1)S(=O)(=O)c1ccc(OCC(=O)NCc2ccncc2)cc1,"inconclusive [inhibitor, single point]",
COc1ccc(/C=N/NC(=O)c2cc(C34CC5CC(CC(C5)C3)C4)[nH]n2)cc1O,"inconclusive [inhibitor, single point]",
O=S(=O)(NCc1ccc(F)cc1)c1ccc2[nH]c3c(c2c1)CCCCC3,"inconclusive [inhibitor, single point]",

SMILES,Potency,"activity change, negative = growth inhibition"
CC1CC(C)CN(S(=O)(=O)c2ccc(C(=O)N3CC(C)OC(C)C3)cc2)C1 (configuration not stated),"inconclusive [inhibitor, single point]",
O=C1C[C@@H]2c3c(cccc3CN1Cc1ccccc1Br)C[C@@H](O)[C@H]2O,inactive,
COc1ccc(NC2=C(NCCO)C(=O)c3ccccc3C2=O)cc1,active: 14.6 µM,
Cc1ccc(S(=O)(=O)Nc2ccnc(-c3cccnc3)n2)cc1,inactive,
CCN(CC)c1ccc(NC(=O)COc2ccc(C#N)cc2)cc1S(=O)(=O)Nc1ccc(OC)cc1,"inconclusive [inhibitor, single point]",
COc1ccc2nc(-c3ccccc3)nc(C3CCCCC3)c2c1,"inconclusive [inhibitor, single point]",
CCCCN(C)C(=O)CCCCn1c(=O)[nH]c2cc(OCC)c(OCC)cc2c1=O,"inconclusive [inhibitor, single point]",
Oc1ccccc1N1CCN(CC(O)COCc2ccccc2Cl)CC1 (configuration not stated),"inconclusive [inhibitor, single point]",
Cc1ccccc1Nc1c(-c2cccc(O)c2)nc2ccc(Br)cn12,"inconclusive [inhibitor, single point]",
COc1cc(-c2cnc3c(NC=O)cc(-c4ccc(S(C)(=O)=O)cc4)cn23)cc(OC)c1OC,active: 18.4 µM,
O=C(Nc1cc(S(=O)(=O)N2CCOCC2)ccc1Oc1ccc(F)cc1)C1=COCCO1,"inconclusive [inhibitor, single point]",
COc1ccc(-c2nc3cnc(N4CCOCC4)nc3n(-c3ccccc3)c2=O)cc1,inactive,
O=C(CSc1nnc(CNC(=O)c2ccccc2)o1)Nc1nccs1,"inconclusive [inhibitor, single point]",
CC1CCN(C(=S)Nc2ccc3nc4n(c(=O)c3c2)CCCCC4)CC1,"inconclusive [inhibitor, single point]",
COc1ccc(-n2c(SCC#N)nc3ccccc3c2=O)cc1,"inconclusive [inhibitor, single point]",
Cc1nnc(SCC(=O)NC2CC2)s1,inactive,
O=Cc1c(Cl)cccc1Cl,inactive,
COc1cc(OC)c(NC(=O)CSC2=Nc3ccccc3N=C(c3ccc(F)cc3)C2)cc1Cl,"inconclusive [inhibitor, full curve, poor fit]",
O=C(OCC(=O)N1CCCCCC1)c1ccc(Br)c(S(=O)(=O)N2CCOCC2)c1,inactive,
CCOc1ccc(CNC(=O)c2ccc3c(c2)sc2nc(-c4ccc(OC)cc4)cn23)cc1,inactive,
COc1nnc(-c2ccc(C)c(S(=O)(=O)NC(C)C)c2)c2ccccc12,"inconclusive [inhibitor, single point]",
Cc1cc(NC(=O)c2ccc(C)c([N+](=O)[O-])c2)no1,inactive,
COc1ccccc1-c1nc(NCc2cccs2)c2ccccc2n1,"inconclusive [inhibitor, single point]",
Cc1cc(C)n(-c2ccc(F)cc2CN2CCN(C3CCCC3)C(CCO)C2)n1 (configuration not stated),"inconclusive [inhibitor, full curve, poor fit]",
